Data on 146 sequences can be found in the BET-seq Pho4 binding data (Le et al. 2018).

This is one part of the list. These are noisy estimates, calculated here from bound and input reads.

The assay deals with T1, Pho4 (S. cerevisiae) (UniProt P07270).
T1 sequence: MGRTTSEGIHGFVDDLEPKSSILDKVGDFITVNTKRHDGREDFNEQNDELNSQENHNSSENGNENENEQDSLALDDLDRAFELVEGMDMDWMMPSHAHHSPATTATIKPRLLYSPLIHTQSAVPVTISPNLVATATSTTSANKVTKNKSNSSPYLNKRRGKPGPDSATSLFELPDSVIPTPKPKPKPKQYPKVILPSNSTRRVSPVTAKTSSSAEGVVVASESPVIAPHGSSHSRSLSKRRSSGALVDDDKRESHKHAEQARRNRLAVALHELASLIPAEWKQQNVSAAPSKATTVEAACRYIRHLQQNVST
In words: relative binding free energy (BET-seq); higher = weaker binding. To be noted: reference: library average.
For AAGTGCACGTGGTGAG, the “relative binding free energy” value worked out at 0.05 kcal/mol.
With GTTGTCACGTGTCTTT the figure was 0.31 kcal/mol; with AAATGCACGTGATGGG, 0 kcal/mol.
With TAGATCACGTGAGGGA, the “relative binding free energy” value stood at 0.34 kcal/mol.
On to AAGTTCACGTGTGTCA, for which the “relative binding free energy” value amounted to 0.32 kcal/mol.
With GGTGACACGTGCGAGT the figure was 0.07 kcal/mol.
For the sequence ATATTCACGTGAAGTT, the “relative binding free energy” value was 0.35 kcal/mol.
The value for TATGCCACGTGTTGTT was -0.18 kcal/mol; that for AGTGCCACGTGTGTAT was -0.03 kcal/mol; that for GTTTGCACGTGCTTCG was -0.11 kcal/mol.
On to GAGATCACGTGATTGG, for which the “relative binding free energy” value was found to be 0.17 kcal/mol.
The value for GTTTACACGTGTTTAC was 0.2 kcal/mol.
For AATTTCACGTGAGTAA, the “relative binding free energy” value was 0.39 kcal/mol.
With TGTACCACGTGGTGGA the figure was -0.14 kcal/mol; with GTTTACACGTGAGAGG, 0.34 kcal/mol; with CTTCTCACGTGTAGTG, 0.25 kcal/mol.
The value for AGGTTCACGTGAATTG was 0.2 kcal/mol; that for AATTGCACGTGGGTTG was -0.19 kcal/mol.
With TTCTTCACGTGGGGTC the figure was 0.15 kcal/mol; with TTGTCCACGTGTTTTC, 0.17 kcal/mol.
In the case of GATGTCACGTGGTATC, the “relative binding free energy” value worked out at 0.14 kcal/mol.
As for TGTAGCACGTGGCTAT, the “relative binding free energy” value was -0.04 kcal/mol.
With CCGGGCACGTGTATGT the figure was -0.05 kcal/mol.
With AGTGACACGTGTTTGC, the “relative binding free energy” value is -0.1 kcal/mol.
With GCGTTCACGTGGACTG the figure was 0.44 kcal/mol; with TTTTGCACGTGGGCCG, -0.22 kcal/mol; with CAGTTCACGTGAGGGT, 0.31 kcal/mol.
TAGATCACGTGTGTGG: the “relative binding free energy” value came out at 0.06 kcal/mol.
With TGTATCACGTGGTACA the figure was 0.16 kcal/mol.
The value for GGATTCACGTGAAGAA was 0.5 kcal/mol; that for GTGGGCACGTGCTGAA was -0.08 kcal/mol; that for AAGTCCACGTGAGGGG was 0.12 kcal/mol.
The value for TAGTACACGTGGAGTA was -0.01 kcal/mol.
On to TGGATCACGTGGGCTG, for which the “relative binding free energy” value is 0.04 kcal/mol.
With ATGAGCACGTGGTGCG the figure was -0.12 kcal/mol.
With CGCGTCACGTGCGGGT, the “relative binding free energy” value is -0.08 kcal/mol.
The value for TTGATCACGTGCATGG was 0.07 kcal/mol.
The value for GTGGACACGTGGTCAT was 0.12 kcal/mol; that for GGGGTCACGTGGCATG was 0.08 kcal/mol.
With TTGTGCACGTGTGAAG the figure was 0.14 kcal/mol; with TTGTACACGTGATGCG, 0.13 kcal/mol.
On to TCAAACACGTGTTTTT, for which the “relative binding free energy” value turned out to be 0.1 kcal/mol.
On to ATCTACACGTGGTATG, for which the “relative binding free energy” value came out at 0.01 kcal/mol.
For TGTCGCACGTGGTTGG, the “relative binding free energy” value was -0.11 kcal/mol.
The value for GGACCCACGTGGTGGT was -0.12 kcal/mol; that for GTATTCACGTGGTTGA was 0.09 kcal/mol; that for TGGGTCACGTGGACGC was 0.12 kcal/mol.
The value for TTGCGCACGTGTAAGT was 0 kcal/mol.
The value for ATCGACACGTGGGAGG was -0.07 kcal/mol; that for GGTTTCACGTGGTATA was 0.17 kcal/mol; that for CTTTTCACGTGTTCGT was 0.17 kcal/mol.
Turning to CGTTCCACGTGTGAGT, the “relative binding free energy” value worked out at 0.25 kcal/mol.
Regarding CGTTACACGTGTGGTT, the “relative binding free energy” value was determined as 0.1 kcal/mol.
Regarding ACGTGCACGTGCGGAT, the “relative binding free energy” value is -0.07 kcal/mol.
As to CGTGTCACGTGGGGCT, the “relative binding free energy” value is -0.04 kcal/mol.
With ATGAGCACGTGCTTGG the figure was -0.1 kcal/mol.
With TTATGCACGTGAGTCG the figure was 0.16 kcal/mol; with AAAATCACGTGCTGTG, 0.27 kcal/mol.
In the case of GAAGACACGTGGGTAG, the “relative binding free energy” value is -0.04 kcal/mol.
On to TGCGTCACGTGAATGT, for which the “relative binding free energy” value was determined as 0.38 kcal/mol.
With GGAAGCACGTGTGGTT, the “relative binding free energy” value was found to be 0.04 kcal/mol.
With TGGGACACGTGAAGAG the figure was 0.38 kcal/mol.
The value for AGATGCACGTGTGCGT was 0.02 kcal/mol.
As to TTTTTCACGTGCGATC, the “relative binding free energy” value is 0.44 kcal/mol.
Take TGGTGCACGTGAATCA: the “relative binding free energy” value turned out to be 0.21 kcal/mol.
With CTGGTCACGTGGGTGT the figure was -0.07 kcal/mol; with TACTTCACGTGCGTTT, 0.17 kcal/mol; with TTCATCACGTGGGGAG, 0.14 kcal/mol.
With ATTTACACGTGGTAGG the figure was 0.08 kcal/mol.
For TGCCGCACGTGTGTTT, the “relative binding free energy” value came to 0.06 kcal/mol.
Regarding AATGGCACGTGTGGAT, the “relative binding free energy” value was -0.12 kcal/mol.
Take CTTATCACGTGAGTAT: the “relative binding free energy” value stood at 0.3 kcal/mol.
Turning to GTGTTCACGTGGAGCT, the “relative binding free energy” value is 0.3 kcal/mol.
With GTGAACACGTGATGTC, the “relative binding free energy” value came to 0.36 kcal/mol.
With ATTGCCACGTGGGGAT, the “relative binding free energy” value was -0.29 kcal/mol.
With TGGGCCACGTGTAGCG the figure was -0.09 kcal/mol.
Turning to CGATTCACGTGTAGGG, the “relative binding free energy” value came out at 0.33 kcal/mol.
The value for ATCCGCACGTGGGGGT was -0.25 kcal/mol; that for GTCTGCACGTGGGTGA was -0.07 kcal/mol; that for CTTGGCACGTGAGAAG was 0.17 kcal/mol.
With ATTGACACGTGTAGTG the figure was 0.04 kcal/mol; with AATTACACGTGTTAGT, 0.09 kcal/mol.
Turning to AGTTGCACGTGGGTCG, the “relative binding free energy” value was -0.11 kcal/mol.
With ATTATCACGTGTGGTC the figure was 0.2 kcal/mol; with TCGGGCACGTGGGACG, -0.28 kcal/mol.
In the case of ACATTCACGTGTTAGT, the “relative binding free energy” value turned out to be 0.17 kcal/mol.
With TGTGGCACGTGCATTG the figure was -0.12 kcal/mol; with TGTCGCACGTGCAGTG, -0.03 kcal/mol.
Turning to ACTTGCACGTGGTGTT, the “relative binding free energy” value is -0.15 kcal/mol.
GGCTGCACGTGTTTTG: the “relative binding free energy” value amounted to 0.12 kcal/mol.
With TGTTCCACGTGGTCGG the figure was 0.05 kcal/mol; with ATAATCACGTGATTGA, 0.1 kcal/mol; with TCGGTCACGTGGCGTG, -0.01 kcal/mol.
In the case of GTAGGCACGTGCCAGG, the “relative binding free energy” value was -0.14 kcal/mol.
In the case of TAAGTCACGTGGTCTG, the “relative binding free energy” value is 0.02 kcal/mol.
With GGTCTCACGTGGGTCT the figure was 0.04 kcal/mol; with TTTGTCACGTGTCGTC, 0.11 kcal/mol.
The value for TTTGACACGTGGTGTA was -0.19 kcal/mol; that for TAATTCACGTGAAGAT was 0.34 kcal/mol.
Regarding CAAATCACGTGGTGGT, the “relative binding free energy” value came out at 0.03 kcal/mol.
With TTTATCACGTGGAGCG the figure was 0.24 kcal/mol; with CGTGTCACGTGAATTG, 0.37 kcal/mol; with TGTCGCACGTGGCGGG, -0.16 kcal/mol.
Take CGGATCACGTGAGTGT: the “relative binding free energy” value was 0.34 kcal/mol.
With GCGGTCACGTGGGGGC the figure was 0 kcal/mol.
TTATTCACGTGTAGGC: the “relative binding free energy” value was determined as 0.31 kcal/mol.
With TTTTGCACGTGCACTG the figure was 0.04 kcal/mol; with GATAACACGTGGGGTA, 0.02 kcal/mol.
The value for TAACTCACGTGGTTGT was 0.19 kcal/mol; that for GGTAGCACGTGCTTAT was -0.07 kcal/mol; that for AATCTCACGTGGGTGG was 0.17 kcal/mol.
ACGTGCACGTGTCGGT: the “relative binding free energy” value is -0.14 kcal/mol.
With TATCTCACGTGGTATG the figure was 0.21 kcal/mol; with ATTAGCACGTGAGAAG, 0.17 kcal/mol.
In the case of TGGGACACGTGTGTCA, the “relative binding free energy” value amounted to 0.21 kcal/mol.
Turning to GATGGCACGTGTGTAG, the “relative binding free energy” value was found to be 0.04 kcal/mol.
On to GGTTACACGTGTTTGC, for which the “relative binding free energy” value was 0.15 kcal/mol.
With TTAGTCACGTGGGTAT the figure was 0.04 kcal/mol; with TTCGTCACGTGTACGG, 0.16 kcal/mol; with TGGGTCACGTGCTGGG, 0.23 kcal/mol.
The value for GTGTACACGTGTGGCT was 0.09 kcal/mol; that for TGGTGCACGTGATGAT was 0.14 kcal/mol.
With TATGTCACGTGAATTT the figure was 0.3 kcal/mol; with GGTTGCACGTGGATAA, 0.19 kcal/mol.
With AGTCGCACGTGAGGGG, the “relative binding free energy” value was found to be 0.11 kcal/mol.
Consider GTGATCACGTGGACGT, for which the “relative binding free energy” value was 0.17 kcal/mol.
Regarding AACTTCACGTGTTTTG, the “relative binding free energy” value came to 0.3 kcal/mol.
Turning to TACGGCACGTGATGTA, the “relative binding free energy” value is 0.11 kcal/mol.
As to TGGGGCACGTGGCATC, the “relative binding free energy” value was -0.23 kcal/mol.
Turning to GAAGACACGTGTGATT, the “relative binding free energy” value came out at 0.23 kcal/mol.
As to GTGAGCACGTGCTGTT, the “relative binding free energy” value was -0.12 kcal/mol.
As to AGGTACACGTGGTTAG, the “relative binding free energy” value was -0.05 kcal/mol.
The value for AGGGGCACGTGAATGC was 0.11 kcal/mol.
With CGGTTCACGTGATGGT the figure was 0.39 kcal/mol; with GCTGACACGTGGGAGG, -0.11 kcal/mol.
TAATTCACGTGTGTGT: the “relative binding free energy” value worked out at 0.27 kcal/mol.
The value for TATCTCACGTGTGGGC was 0.33 kcal/mol; that for CAAATCACGTGGGTGG was 0.02 kcal/mol; that for TTAGGCACGTGGGTGG was -0.17 kcal/mol.
On to CGGGTCACGTGGCTTT, for which the “relative binding free energy” value was -0.01 kcal/mol.
In the case of GGGTACACGTGTAGGC, the “relative binding free energy” value was determined as 0.29 kcal/mol.
In the case of CTTTGCACGTGTCGTT, the “relative binding free energy” value was -0.01 kcal/mol.
With TGGTACACGTGGGTCA the figure was -0.3 kcal/mol; with GCGAGCACGTGGGTGG, -0.16 kcal/mol.
On to GGAATCACGTGATAGG, for which the “relative binding free energy” value was 0.34 kcal/mol.
CATGGCACGTGTAGTT: the “relative binding free energy” value was -0.01 kcal/mol.
